Results reported in PubChem BioAssay AID1508623 (National Center for Advancing Translational Sciences (NCATS), 2021).
The campaign covered roughly 48,000 compounds. About 450 (0.94%) were called active. Another 19% or so got no clear call; they are omitted. The call rests on the fitted dose curve; in most records, active means well fitted inhibition curve with a large enough effect; inconclusive means small, poorly fitted or top-dose-only effect; inactive means no such curve, though single readings can be large or run the other way. The list shows a part of the results.

experiment: Primary qHTS for Identification of Small Molecule Inhibitors of Huntingtin Promoter Activity; settings: HEK293 HTT promoter firefly luciferase reporter (activity 0% = vehicle and -100% = no light), 24 h; series mostly up to 57.5 µM; activity change, negative = inhibition: at the top concentration; further: nearly all actives have a fitted effect of over 50% in size
How it was run: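 HEK293 luciferase promoter-reporter cells (2,500/well) plated 24 h, then compounds added at up to 57.5 uM final for 24 h at 37 °C. Firefly luminescence by Dual-Glo, normalized to vehicle (0%) and zero RLU (-100%).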

Activity change, negative = inhibition, inactive:
CCC1CN(C(=O)Nc2ccccc2C(F)(F)F)c2ccccc2S1 (stereo unspecified) 5.31%
CCC1CN(C(=O)N2CCC(C(=O)N(C)Cc3ccccc3)CC2)c2ccccc2O1 (stereo unspecified) -20.9%
Cc1ccc(CNC(=O)c2cc(S(=O)(=O)N3CCCCC3)cn2C)cc1 -33%
COC(=O)c1scc(-c2ccc(C)cc2)c1S(=O)(=O)Nc1c(C)cc(C)cc1C -6.94%
CCS(=O)(=O)c1ncc(N(Cc2cccc(F)c2)Cc2ccco2)c(C(=O)Nc2ccccc2Cl)n1 12%
CCOc1ccccc1NC(=O)CCNS(=O)(=O)c1ccc2c(c1)CCN2C(=O)C1CC1 -8.35%
Cc1ccc(/C=C/c2onc(C)c2S(=O)(=O)N2CCC(C(=O)NCc3ccc(N(C)C)cc3)CC2)cc1 -18.9%
COc1ccc(NC(=O)CN(c2ccc(C)cc2)S(=O)(=O)c2cccs2)cc1OC -1.86%
Fc1ccccc1N1CCN(c2c3c(nc4nncn24)CCC3)CC1 -34.1%
CCC(Sc1nnc(-c2ccc(OC)cc2)c(-c2ccc(OC)cc2)n1)C(=O)Nc1cccc(OC)c1 (stereo unspecified) -5.17%
Cc1ccc(OCCCC(=O)Nc2sc3c(c2C(N)=O)CCCC3)cc1 -14.8%
CCCCN(C)C(=O)Cn1ncc2c([nH]c3ccc(C)cc32)c1=O -1.8%
COc1ccccc1NC(=O)c1sc2nc(-c3cc4ccccc4oc3=O)[nH]c(=O)c2c1C 2.86%
Cc1cc(C)cc(NC(=O)c2cccc(N3CCCS3(=O)=O)c2)c1 28.5%
Cc1cccc(C(=O)Nc2nnc(SCc3cc(=O)n4cccc(C)c4n3)s2)c1 5.98%
COc1ccc(C(=O)N/C(=C\c2cn(S(=O)(=O)N(C)C)c3ccccc23)C(=O)NCCCn2ccnc2)cc1 -2.52%
O=C(CSc1nnc(-c2ccccc2F)o1)N1CCc2ccccc21 7.75%
Cc1cccc(NC(=O)c2c(NC(=O)c3ccco3)sc3c2CCC(C(C)(C)C)C3)c1 (stereo unspecified) -10.7%
C#Cc1cccc(Nc2ncnc3cc(OCCOC)c(OCCOC)cc23)c1 -23.5%
CN(Cc1ccccc1)C(=O)C1CCN(Cc2cc3ccccc3n2Cc2ccccc2)CC1 -14.8%
COc1cc(OC)cc(C(=O)Nc2ccc(S(=O)(=O)Nc3onc(C)c3C)cc2)c1 -1.67%
CCOC(=O)c1c(C)[nH]c(CCC(=O)Nc2cc(C)cc(C)c2)c1C -25.1%
Cc1ccc(-n2c3c(cc(-c4nc(-c5ccc(Cl)cc5)cs4)c2=O)C(=O)CC(C)(C)C3)cc1 -9.02%
COc1cccc(CNC(=O)CN2C(=O)CCn3nc(-c4cn(C)c5ccccc45)cc32)c1OC -0.541%
CCOC(=O)c1cccc(NC(=O)c2cc(-c3ccc(Cl)s3)nc3ccccc23)c1 0%
O=C(NCCc1ccccc1)c1ccc(CSc2nc3ccncc3n2Cc2ccccc2)cc1 9.75%
